Measurements from the supplement of paper PMC11417369.
± gives the standard deviation of the averaged measurements. Some of the results follow.

system: PfAP2-EXP AP2 domain (GST-tagged); assay: gcPBM binding intensity (ln(normalized median fluorescence intensity)); higher = stronger DNA binding
How it was run: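 The binding buffer was 1× PBS containing 1% milk, 0.2 mg/ml BSA, 0.5% salmon testes DNA and 0.03% Triton X-100. In it, GST-tagged P. falciparum DNA-binding domains expressed in E. coli were applied for 1 h to an Agilent 4 × 180k array of primer-extended double-stranded 36-bp intergenic genomic probes plus negative controls. Binding intensity, read with Alexa488 anti-GST antibody and a 488 nm scan, is the highest Masliner-normalised natural-log median intensity across replicate spots of either probe orientation.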

| Sequence | gcPBM binding intensity (ln) |
| --- | --- |
| TTTTTCTTCTGCATTATGCACACTATAATTCGTTAA [CACACA_site2837] | 9.11 ± 0.38 |
| TTTTTAATATATAAAGATAATAATAAATAAAATTCA [CACACA_negctrl_site657] | 8 ± 0.38 |
| TATAATGATGATGATAGTACGTATGAGTTCAAAAAA [XGTACX_site3656] | 8.71 ± 0.43 |
| TTAAAATCTTGAAAAGTGCATTATCATTTTGTAACG [GTGCAC_site9447] | 8.545 ± 0.021 |
| TATATATTTATATATGCATGTACATTTTTATTTATT [TGCATGCA_site1048] | 8.82 ± 0.25 |
| CTGAATGTATATATTTGTACATATATATATATATAT [XGTACX_site5557] | 10.4 ± 0.22 |
| TTTTTTTTTTTTAATTAACACACATAAATATATATA [CACACA_site9077] | 8.37 ± 0.42 |
| AAAAAAAAAAAACACGCATGTACATAAAAATAATCA [TGCATGCA_site142] | 8.85 ± 0.49 |
| GGGTATAATAAAAGCACACACAAAGATATAAATATA [CACACA_site3308] | 8.87 ± 0.38 |
| TTTTTGATGAAATATTATTTTCCTGACTTGGATTAA [CACACA_negctrl_site148] | 8.16 ± 0.45 |
| AACCATAAATAATTATGTACTAAAAAAAATATATAT [XGTACX_site3415] | 8.61 ± 0.27 |
| TGGAGGATAGTTCACAGTACCCAGAAACTCTACGGA [XGTACX_site2560] | 8.6 ± 0.41 |
| ATAATATATTTATGTTGTACAAGGAAAATTTTGAAA [XGTACX_site3472] | 9.13 ± 0.35 |
| GAAATGGAAAAATATACATGCGCATATAAATTAATA [TGCATGCA_site834] | 8.71 ± 0.4 |
| ATCATATGTATGCATACACACAAAAAATTATATATA [CACACA_site398] | 8.59 ± 0.49 |
| TATAATGATATAACAACACACATGTATGTATTATTA [CACACA_site230] | 8.22 ± 0.33 |
| TCTTATATATGCTTAAATATATTATATTTATTTGAA [CACACA_negctrl_site1757] | 8.29 ± 0.41 |
| TTATTTATGATATATACACACTAACATTATTTATCC [CACACA_site6720] | 8.49 ± 0.4 |
| TGTATATATCAATGTACACACATGCGTATGTTCGTT [CACACA_site7654] | 8.62 ± 0.28 |
| TATAAAAAAAATTGCACACATATTATACAGGACGAC [CACACA_site701] | 9.19 ± 0.23 |
| AAAATATATATAACTTGTACATATACATACGTATAT [XGTACX_site4570] | 8.27 ± 0.26 |
| AATATATGGTTCCTTGATATTAAATTCAATTTAATG [CACACA_negctrl_site71] | 8.41 ± 0.52 |
| TGTGTATATGTGCAAAGTACAAAAAAGAAATTATTT [XGTACX_site7569] | 8.66 ± 0.41 |
| TAGTATTGTAAAAAAAAAAAAGAAAAAAAAAAAAAA [CACACA_negctrl_site977] | 8.24 ± 0.33 |
